Source: PubChem BioAssay AID1159614 (National Center for Advancing Translational Sciences (NCATS), 2016)
Out of some 45,000 compounds screened, about 65 (0.1%) were called active. Calls come from the whole dose curve; as a rule, active = well fitted activation curve with a large enough effect; inconclusive = small, poorly fitted or top-dose-only effect; inactive = no such curve, though single readings can be large or run the other way. Some of the results follow.

biological target: Galactocerebrosidase (Homo sapiens) (UniProt P54803); assay: A Novel Cell-Based Assay to Identify Small Molecules for B -Galactocerebrosidase; conditions: 145M-Twi-hGALC-G270D cells (Twitcher mouse brain line with human GALC G270D), HMU-beta-Gal fluorescence, 48 h; series mostly up to 57.5 µM; activation: at the top concentration; note: 0% is about no effect; nearly all actives have a fitted effect of over 65% in size
Sequence of UniProt P54803 (P54803 whole entry, looked up): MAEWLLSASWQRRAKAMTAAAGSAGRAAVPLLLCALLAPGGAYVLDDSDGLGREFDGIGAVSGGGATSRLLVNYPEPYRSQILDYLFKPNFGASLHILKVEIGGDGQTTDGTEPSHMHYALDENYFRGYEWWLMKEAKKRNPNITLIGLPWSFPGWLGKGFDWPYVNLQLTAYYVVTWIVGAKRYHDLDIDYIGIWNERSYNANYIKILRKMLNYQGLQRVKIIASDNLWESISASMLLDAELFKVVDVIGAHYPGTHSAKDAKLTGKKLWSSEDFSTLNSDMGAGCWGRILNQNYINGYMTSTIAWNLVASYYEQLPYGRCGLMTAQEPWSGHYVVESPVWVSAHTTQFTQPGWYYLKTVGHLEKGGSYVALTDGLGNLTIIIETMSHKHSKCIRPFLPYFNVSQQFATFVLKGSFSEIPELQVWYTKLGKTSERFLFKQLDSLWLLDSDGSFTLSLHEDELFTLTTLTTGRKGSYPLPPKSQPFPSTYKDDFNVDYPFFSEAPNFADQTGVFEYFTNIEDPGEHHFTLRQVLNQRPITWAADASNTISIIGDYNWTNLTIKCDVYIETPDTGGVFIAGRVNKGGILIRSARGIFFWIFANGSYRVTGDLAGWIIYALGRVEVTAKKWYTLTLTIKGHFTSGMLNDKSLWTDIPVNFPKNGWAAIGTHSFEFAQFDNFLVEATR
Summary of the method: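 Mutant human GALC (G270D), stably expressed in a Twitcher mouse brain cell line lacking endogenous GALC, is measured in live-treated cells via 6-hexadecanoylamino-4-methylumbelliferyl-β-galactoside hydrolysis (0.1 mM final, pH 5.2) with fluorescent detection.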

activation, inactive:
CCC(C)NC(=O)c1cn(CC)c2ccc(S(=O)(=O)N3CCc4ccccc4C3)cc2c1=O (stereo not given) 0.603%
Cc1ccc(CCNC(=O)c2ccc3c(c2)N(Cc2ccc(F)cc2)CCS3)cc1 -9.45%
CCCCc1ncc(/C=C(\Cc2cccs2)C(=O)O)n1Cc1ccc(C(=O)O)cc1 -6.71%
Cc1nc(-c2ccc(C)c(S(=O)(=O)N3CCC(C(=O)NCc4ccc(F)cc4)CC3)c2)no1 -2.73%
COc1ccccc1N1CCN(S(=O)(=O)CCNC(=O)C(c2ccccc2)c2ccccc2)CC1 -16.7%
COc1ccc(S(=O)(=O)N(CCc2ccccc2)CC(=O)Nc2cc(C)cc(C)c2)cc1OC -18%
O=C1NC2CCCCN2C12CCN(CCCN1c3ccccc3CCc3ccc(Cl)cc31)CC2 (stereo not given) -8.03%
CC(=O)c1cccc(N2C(=O)CN(S(C)(=O)=O)CC2(C)C(=O)NC2CCCC2)c1 (stereo not given) -9.8%
CCc1ccc(NC(=O)Cn2c(=O)n(CCc3ccccc3)c(=O)c3sc4ccccc4c32)cc1 3.86%
Cc1cc(N2CCC(C)CC2)nc2ccc(NC(=O)CCC(=O)N3CCN(c4ccccc4F)CC3)cc12 -7.13%
O=S(=O)(c1ccc2nc(Nc3ccc(F)cc3)ccc2c1)N1CCCC1 -11.2%
Cc1cccc(-n2nnc(-c3nc(-c4cccs4)no3)c2N)c1 -23.4%
Cc1ccc(C)c(CNC(=O)CN2C(=O)CSc3ccc(S(=O)(=O)N(C)C)cc32)c1 -29%
CCOc1ccccc1NC(=O)CCc1c(C)nc2cc(-c3ccccc3)nn2c1C -16.5%
Cc1ccc(NC(=O)CN(c2ccc(C)cc2)S(=O)(=O)c2cccc3nonc23)cc1 -30.6%
CC(C)C(=O)Nc1cccc(C(=O)Nc2nnc(C(F)(F)F)s2)c1 -11.8%
Cc1ccc(NC(=O)Cn2nc(-c3ccccc3)nc(Cc3ccccc3)c2=O)cc1 -2.94%
COc1ccc(-n2nc(-c3ccc(C)cc3)c3cnc4cc(F)c(F)cc4c32)cc1 -10.6%
COc1cccc(CNC(=O)c2ccc3c(c2)nc2n3CCC(C)C2)c1 (stereo not given) -20.3%
CCCN(CCC)C(=O)c1nn(C)c2c1CSc1ccccc1-2 -10.1%
COc1cccc(NC(=O)Cn2c(=O)n(CCc3cccc(C)c3)c(=O)c3ccccc32)c1 -9.53%
CCOCCCn1c(=N)c(C(=O)NCc2ccccc2)cc2c(=O)n3ccccc3nc21 -5.74%
Cc1c2cnn(-c3ccccc3)c(=O)c2c(C)n1C(C)C(=O)NCc1cccc(Br)c1 (stereo not given) -6.17%
Cc1cccc(NC(=O)c2c(NC(=O)c3ccco3)sc3c2CCC(C)C3)c1 (stereo not given) -13.7%
CCOc1ccc2nc(N3CCCC(C(=O)NCCc4ccc(C)cc4)C3)sc2c1 (stereo not given) -13.8%
CC(C(=O)Nc1ccccc1)n1nnc2sc3c(c2c1=O)CCCC3 (stereo not given) -12.6%
Cc1ccc(NC(=O)CSc2nc3ccccc3n2CC(=O)N(C)C2CCCCC2)cc1C -7.52%
Cc1ccccc1C(=O)Nc1ccccc1-c1nc(-c2ccccc2)no1 9.98%
Cc1nc(-c2cccc(F)c2)sc1CCNC(=O)C(=O)Nc1ccc2c(c1)OCCO2 -6.78%
CCc1nc2nc(C)c(NS(=O)(=O)c3ccc(F)c(C)c3)c(=O)n2[nH]1 -0.259%
Cc1cc(C(=O)NCc2ccccc2)c2c(C)nn(-c3cccc(Cl)c3C)c2n1 -7.4%
Cc1ccc(NC(=O)C2CCCN2S(=O)(=O)c2ccc3nc(-c4ccccc4)[nH]c3c2)cc1C (stereo not given) -39%
Cc1cccc(NC(=O)Nc2nnc(N3CCCC3)s2)c1 -13.7%
CCCCn1c(CNC(=O)C23CC4CC(CC(C4)C2)C3)nnc1SCC(=O)Nc1ccc(F)cc1 -25.8%
Cc1cccc(Cn2c(=O)n(Cc3ccccc3)c(=O)c3sc4ccccc4c32)c1 0.331%
Cc1ccc(-n2cnc3cc(C(=O)NCCC4=CCCCC4)ccc32)cc1Cl -12.9%
CCc1ccccc1N(CC)C(=O)Cn1nc(Cc2ccncc2)c2ccccc2c1=O -21.8%
Cc1ccc(S(=O)(=O)C(CNS(=O)(=O)c2ccc(F)c(C)c2)c2cccs2)cc1 (stereo not given) -14.7%
O=C(NCCS(=O)(=O)N1CCN(c2ccccc2F)CC1)C1CC(=O)N(c2ccc(F)cc2)C1 (stereo not given) -11.8%
COc1ccc(CNC(=O)C(=O)NCC(c2cccs2)S(=O)(=O)c2cccs2)cc1 (stereo not given) -12.2%
O=C(CCc1nc(-c2cccs2)no1)Nc1ccc([N+](=O)[O-])cc1 -6.64%
Cc1ccc(OCC(=O)Nc2cccc3ccc(C)nc23)c(C)c1 -12.5%
Cc1cccc(NC(=O)COc2ccc3oc4c(c3c2)CCCC4)c1 -21%
Cc1cn2c(=O)c(S(=O)(=O)NCc3ccc(F)cc3)c(C)nc2s1 -10.4%
Cc1ccc(CNC(=O)CSCc2nc(-c3cccc(C)c3)oc2C)cc1 -12.8%
CCC(NC(=O)Nc1cccc(C)c1)c1c(-n2cccc2)sc2c1CCN(C)C2 (stereo not given) -15%
O=C(CCC1N=C2c3ccccc3N=C(SCC(=O)NCCc3ccccc3)N2C1=O)NCc1ccc(F)cc1 (stereo not given) -20.2%
O=C(NCc1ccccc1Cl)c1ccc(-n2cnc3cccnc32)cc1 -17.2%
CCOc1ccccc1NC(=O)Cn1nc(N2CCN(c3ccccc3)CC2)ccc1=O -25.7%
Cn1c(/C(C#N)=C/c2ccc(C(F)(F)F)cc2)nc2ccccc21 -15.8%
COc1ccccc1CNC(=O)CSc1cc(C)[nH]c(=O)n1 -10.1%
Cc1ccn2c(Nc3ccc4c(c3)OCCO4)c(-c3ccc(N(C)C)cc3)nc2c1 -12.4%
COc1ccc(-c2c(C)nn3c(N4CCN(c5cc(Cl)ccc5C)CC4)cc(C)nc23)cc1OC -0.21%
CCOc1ccc(OCC)c(NC(=O)C2CCCN(S(=O)(=O)c3ccc(C)cc3)C2)c1 (stereo not given) -15.1%
CCCN(CCC)C(=O)Cn1c(=O)n(-c2ccc(Cl)c(Cl)c2)c(=O)c2c(C)c(C(=O)N(C)C)sc21 -9.25%
O=C(Cn1c(=O)n(-c2ccccc2Cl)c(=O)c2sc3ccccc3c21)NC1CCCC1 -7.67%
CCOc1ccc(-c2nnc(SCC(=O)N(CC)c3cccc(C)c3)o2)cc1 -21.3%
COc1ccc(CCNC(=O)Cn2c(-c3ccc(F)cc3)cc(C(C)=O)c2C)cc1OC -3.69%
CCOC(=O)Cn1c(CN2CCN(c3ccc(OC)cc3)CC2)nc2c1c(=O)[nH]c(=O)n2C 2.16%
Cc1cc(=O)n(Cc2c(F)cccc2Cl)c2c1c(C)nn2C -2.01%
CCOC(=O)C1CCN(C(=O)CSc2n[nH]c(-c3ccc(OC)cc3)n2)CC1 -8.32%
COc1ccccc1N1CCN(C(=O)c2cc3c(-c4ccccc4F)nn(C)c3s2)CC1 -7.43%
Cc1ccc(-n2c(=O)c3c(cnn3C)n(CC(=O)Nc3cccc(C)c3)c2=O)cc1 -7.23%
Cn1c(=O)n(C)c2cc(N3CCOCC3)c(NS(=O)(=O)c3ccc(Cl)cc3)cc21 -11%
CCCC(=O)Nc1cc(-c2nnc3c4ccccc4c(C)nn23)ccc1C -4.22%
COc1cc2ccccc2cc1C(=O)N1CCN(c2nc3c(F)cc(F)cc3s2)CC1 -14.5%
Cc1ccc(C)c(OC(=O)CSc2nnc(-c3cccs3)o2)c1 -13.6%
COc1ccc2c(c1)CC(C(=O)NCCc1ccc(S(N)(=O)=O)cc1)CO2 (stereo not given) -5.89%
CCc1ccc(NC(=O)CCCc2nnc3n(CCCOC)c(=O)c4sccc4n23)cc1 -9.86%
CSc1cccc(NC(=O)CN2C(=O)CCc3cc(S(=O)(=O)N4CCCCC4)ccc32)c1 -9.01%
Cc1ccc(NC(=O)C(C)Sc2nc3c(c(=O)[nH]2)CCCC3)cc1Cl (stereo not given) -34.4%
CCOc1ccc(CNC(=O)C2CCCN(c3nn4cc(-c5ccc(F)cc5)nc4s3)C2)cc1 (stereo not given) -11.6%
COc1ccc(N2CCN(CCCNC(=O)c3ccc4nc(Cc5ccccc5)oc4c3)CC2)cc1 -5.07%
COC(=O)c1ccccc1NC(=O)Cn1c(=O)n(CCCC(=O)NCc2ccccc2Cl)c(=O)c2ccccc21 -6.72%
CCc1ccc2oc(-c3ccc(NC(=O)c4cccc(Cl)c4Cl)cc3)nc2c1 -20.6%
O=C(Cn1cnc2c(nc3n2CCCCC3)c1=O)Nc1cccc(C(F)(F)F)c1 -15.9%
CCOc1ccc(/C=C/c2nc(C#N)c(NCCCN(C)C)o2)cc1 -0.669%
O=C(COc1ccccc1Cl)N(Cc1cccc(F)c1)C1CCS(=O)(=O)C1 (stereo not given) -16.9%
CCOc1ccccc1NC(=O)CSc1ccc2nc(-c3ccccc3)cn2n1 -10.1%
Cc1ccc(N2C(=O)CCSC23C(=O)N(Cc2ccc(F)cc2)c2ccccc23)cc1 (stereo not given) -0.411%
CCOc1cccc(C(=O)N(Cc2ccc(F)cc2)Cc2ccco2)c1 -11.9%
COc1ccc(OC)c(NC(=O)Cn2c(=O)n(-c3ccc(Cl)cc3)c(=O)c3c(C)c(C)sc32)c1 3.37%
O=C1CC(c2ccc(F)cc2F)c2cc3c(cc2N1)OCO3 (stereo not given) 0.409%
COc1ccc(Cl)cc1NC(=O)C1CCN(S(=O)(=O)c2ccc(F)cc2)CC1 -17.5%
COc1ccc(C(=O)N(c2ccc(C)cc2)S(=O)(=O)c2ccc(C)cc2)cc1 -3.82%
COCCn1c(SCC(=O)c2ccc(F)cc2)nc2cc(C(=O)NC3CCCC3)ccc2c1=O -5.33%
Cc1ccc(N2C(=O)CS(=O)(=O)C23C(=O)N(Cc2ccc(Cl)cc2)c2ccccc23)cc1C (stereo not given) -27.1%
CCc1cccc(CC)c1NC(=O)Cn1nnc2sc3c(c2c1=O)CCCC3 -16.8%
CCOC(=O)c1c(NC(=O)COc2ccc(C(C)(C)C)cc2)sc2c1CCCC2 0.747%
Cc1ccc(Cc2nc3ccccc3nc2SCC(=O)NCc2ccccc2Cl)cc1 -8.05%
Cc1ccc(NC(=O)c2c(C)nn(-c3ccccc3)c2-n2cccc2)c(Cl)c1 15.9%
COC(=O)c1ccccc1NC(=O)Cn1c(CCC(=O)O)ccc1-c1ccc(C)cc1 -6.68%
Cc1ccc2c(c1)N(C(=O)CCC(=O)NCc1cccs1)CC(C)O2 (stereo not given) -0.591%
CCOC(=O)C1CCN(C(=O)Cn2ncc3c4ccccc4n(Cc4ccccc4)c3c2=O)CC1 -23.8%
Cc1cccc(CC(=O)Nc2c(C(=O)Nc3cccc(F)c3)oc3ccccc23)c1 -11.5%
